The other results are listed elsewhere or left out. At the low end of the ranking the order means little.
System: T1, GST-NbGlk1(82-244)
T1 sequence: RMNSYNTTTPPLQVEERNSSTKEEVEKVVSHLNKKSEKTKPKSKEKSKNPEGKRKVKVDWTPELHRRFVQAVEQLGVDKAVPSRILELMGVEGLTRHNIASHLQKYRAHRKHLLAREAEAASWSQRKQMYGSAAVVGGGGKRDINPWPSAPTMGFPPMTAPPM
Experiment: protein-binding microarray;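 also: rank-based score ranging −0.5 to +0.5 with E above 0.45 taken as significant binding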
Conditions: NbGlk1 is a Golden2-like transcription factor of Nicotiana benthamiana; high values mean tight binding; most listed sequences are background and not binding sites; double strand, one strand shown

| Sequence | binding signal [E-score] |
| --- | --- |
| ACCCCCAC | -0.226 |
| CAATTGAC | 0.0641 |
| ATATCGTG | 0.348 |
| AGGCCTAT | -0.248 |
| AGCTAAAT | 0.00967 |
| ATCAAAGG | -0.0417 |
| ATCGCCAA | 0.206 |
| ATATAGCA | 0.145 |
| ACAACCTC | -0.0571 |
| ACCCGACA | -0.248 |
| CAACTGAG | -0.0505 |
| AAACCTTA | 0.023 |
| ACGGAGGC | -0.158 |
| AATTGTTC | 0.132 |
| ATTTAAAA | 0.188 |
| AAGTCTCA | -0.0979 |
| ACTCGACG | -0.124 |
| ATCTGCTA | 0.331 |
| CACAGGCC | -0.219 |
| AAATCGCC | 0.322 |
| AATACACT | -0.0515 |
| AACGCCTG | -0.133 |
| AGCATACT | -0.212 |
| ATCAGCAG | 0.141 |
| AACGGAGC | -0.216 |

| Sequence | binding signal [E-score] |
| --- | --- |
| ACAAATTG | 0.0984 |
| AGAAGCAC | -0.118 |
| AACAAACA | 0.137 |
| AGTCGGCA | -0.0018 |
| CAAAGTTG | 0.0247 |
| AAGTGATT | 0.282 |
| CACGTGAC | -0.203 |
| AAGTGCGT | -0.0719 |
| ACCCCTAG | -0.231 |
| CAGAACCA | -0.119 |
| ATTATTAG | 0.16 |
| AATGCATC | -0.072 |
| ATTAACAA | 0.138 |
| AAAGAAGG | -0.171 |
| ATCAATTA | 0.187 |
| ACAGCTAA | -0.137 |
| ACGCAGAG | -0.031 |
| AGGGATCA | 0.127 |
| AGTGCTTG | -0.155 |
| AATATTTG | 0.253 |
| ATGACCAT | -0.157 |
| AAAGCTCG | -0.129 |
| AGTAAAAG | 0.163 |
| AGACACAG | -0.116 |
| ACAAGAGT | -0.0409 |

| Sequence | binding signal [E-score] |
| --- | --- |
| CAAGGTAC | -0.0903 |
| ATGAAGGG | -0.156 |
| CAGACAAG | -0.0341 |
| AACCGAAA | 0.0561 |
| AAACTCTC | -0.0615 |
| ATCGTTCG | 0.0477 |
| ACATAACC | -0.0901 |
| AAGCGATT | 0.273 |
| AACCCCAG | -0.287 |
| CAGCCATA | 0.0217 |
| AACGAGAT | 0.309 |
| ACCCGAAG | -0.225 |
| ATGGCACG | -0.111 |
| ACATGTCC | -0.0591 |
| CAGATACC | 0.318 |
| ACGAAAGG | -0.128 |
| ATCATTAC | 0.167 |
| ACGGGGGC | -0.258 |
| AACTGACG | -0.0411 |
| AGCGATAT | 0.343 |
| AATATTCG | 0.258 |
| AAAACGAG | -0.057 |
| ACGGAAAT | 0.345 |
| AAATTCAA | 0.138 |
| AAGCTCAA | -0.0483 |

| Sequence | binding signal [E-score] |
| --- | --- |
| AGGCAACA | -0.0722 |
| CAGCGGGA | -0.052 |
| ATTAACAG | 0.15 |
| CACGGACG | -0.0215 |
| AGCGGCCT | -0.312 |
| ACATGCCC | -0.1 |
| ACCAGCCG | -0.0411 |
| ATTCACTG | -0.0527 |
| AATCCGTG | 0.322 |
| ACAAATCT | 0.374 |
| ACTACCAA | -0.0229 |
| AATAGATG | 0.112 |
| AAACAGGC | -0.127 |
| AGTTTTGG | -0.112 |
| CACTGGGA | -0.134 |
| AAAAATTA | 0.196 |
| AAAGGTCG | -0.0256 |
| AAAGGTGT | -0.0637 |
| AACACTCA | -0.178 |
| AGGCGATA | 0.0663 |
| AGCACACC | -0.288 |
| AGTTCATA | -0.0426 |
| AAGACTAC | -0.0595 |
| ACCTTGGG | -0.131 |
| AGACGTAG | -0.185 |

| Sequence | binding signal [E-score] |
| --- | --- |
| ATCATAAT | 0.158 |
| ATTCCGCA | 0.238 |
| ATCATCGA | 0.189 |
| AGACGGAC | -0.295 |
| AAGTGTCC | -0.117 |
| AAGGCCTA | -0.215 |
| ATAAGCAC | -0.07 |
| ACTACACA | -0.076 |
| AAGACAAA | 0.0299 |
| AGAAGACA | -0.0586 |
| ACATAATC | 0.327 |
| ATCTTGCA | 0.299 |
| AACGGCCT | -0.23 |
| AGGATCAG | 0.149 |
| AAATTGAA | 0.146 |
| AGAAGTTC | -0.0915 |
| CAAGCAAG | -0.0466 |
| ATTCGATG | 0.108 |
| ATACTAGG | 0.0655 |
| ACGTGCGG | -0.0422 |
| AATCACCG | 0.281 |
| AGCATTAA | -0.0283 |
| AACATCAG | 0.0932 |
| ATTTAAAT | 0.185 |
| AGCCTACG | -0.241 |

| Sequence | binding signal [E-score] |
| --- | --- |
| AAACAAAA | 0.161 |
| ACGGTCTC | -0.272 |
| ATCATATG | 0.0481 |
| AACCGTGA | -0.036 |
| CAATTACA | 0.129 |
| AGCCAGGG | -0.251 |
| AGATAGAT | 0.267 |
| ACGACAGG | -0.0951 |
| AGCTCCAT | -0.2 |
| ACGTGAAG | -0.148 |
| ACGCGGGA | -0.0525 |
| AGTGATAG | 0.0301 |
| ATAAGGCC | -0.082 |
| AGTGTTCA | -0.0479 |
| AACACGGT | -0.227 |
| ATATTCAT | 0.0735 |
| CACGTCGC | -0.158 |
| AGGGTGGC | -0.211 |
| AATCGACC | 0.2 |
| AAACGAGC | -0.119 |
| ACCGGGAC | -0.269 |
| AGACCGAA | -0.0913 |
| AACTGACT | -0.174 |
| AGTGAGCG | -0.14 |
| ATGATACA | 0.076 |

| Sequence | binding signal [E-score] |
| --- | --- |
| AGTTCGTA | 0.0646 |
| ACAGGCCA | -0.227 |
| ATGTTCTA | 0.0337 |
| AGAATTAA | 0.00444 |
| AAAAGCGT | -0.0089 |
| ACTGGACA | -0.0739 |
| AGTACAAT | 0.164 |
| AACGTAAT | 0.361 |
| ATATACAG | 0.262 |
| ATGGGGTA | 0.0777 |
| AAAGACCT | -0.0935 |
| AAGAATCA | 0.325 |
| AATGAATA | 0.0644 |
| AACATGGC | -0.0896 |
| AGCTGCGC | -0.227 |
| CAAGATCA | 0.186 |
| ACCCGTCA | -0.294 |
| ACTCAGCC | -0.264 |
| AGGGTGCA | -0.177 |
| AACGATAT | 0.29 |
| CAACACAG | -0.0803 |
| AGCCGATG | -0.134 |
